Drawing on the supplement of paper PMC9446081, this text covers relative growth for 38 molecules.

Screen size: about 39,000 compounds; about 220 (0.56%) showed activity. This is one part of the list.
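Note: static incubation at 37 °C against the wild-type strain, values averaged over two biological replicates.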

The assay has as its system Escherichia coli K-12 BW25113. Kind of assay: relative growth (OD600 normalised to plate interquartile mean) (fraction); higher = less growth inhibition, active = 0.2 or less. To be noted: 50 µM; LB; incubation time: overnight (16-24 h).
For `COc1ccc(NC(=O)Nc2ccc3c(c2)CC(=O)N([C@@H](C)CO)C[C@@H](C)[C@@H](CN(C)S(C)(=O)=O)O3)cc1`, the relative growth was inactive: 1.

With `Cc1ccc(OCc2nnn(CC(=O)NS(=O)(=O)c3c(C)nn(C)c3Cl)c2-c2ccccc2)cc1`, the relative growth is inactive: 0.987. In the case of `COc1ccc(CN(C)C[C@@H]2OCCCC[C@H](C)Oc3ccc(NC(=O)c4ccccc4)cc3C(=O)N([C@@H](C)CO)C[C@H]2C)cc1` it was inactive: 1.03; in that of `COc1ccc(NC(=O)Nc2ccc3c(c2)C(=O)N([C@@H](C)CO)C[C@H](C)[C@H](CN(C)Cc2ccccc2)OCCCC[C@H](C)O3)cc1`, inactive: 0.99. In the case of `C[C@]1(C(=O)NCc2ccccc2)c2ccccc2C(=O)N(Cc2ccccc2)[C@H]1c1ccc(COC(=O)NCCCCCC(=O)NO)cc1` it was inactive: 0.981; in that of `CN(C)CC(=O)N1[C@@H]2Cn3c(ccc(C4=CCCC4)c3=O)[C@H]1[C@@H](C(=O)NCC1CC1)[C@@H]2CO`, inactive: 0.998. To `C[C@@H]1CCCCO[C@H](CN(C)Cc2ccc(C(F)(F)F)cc2)[C@H](C)CN([C@@H](C)CO)C(=O)c2cc(NC(=O)Nc3cccc4ccccc34)ccc2O1` belongs inactive: 0.98; to `C[C@@H]1CN([C@H](C)CO)C(=O)c2cccc(NS(=O)(=O)c3ccccc3)c2O[C@@H]1CN(C)C(=O)Nc1cccc2ccccc12`, inactive: 0.956. Regarding `Cc1cccnc1[C@@H](NC(=O)C1CCN(CCOc2ccc(Cl)cc2Cl)CC1)c1ccc(F)cc1`, the relative growth was inactive: 0.897. On to `C[C@@H]1CN([C@H](C)CO)C(=O)c2cc(NS(=O)(=O)c3ccc(F)cc3)ccc2O[C@@H]1CN(C)Cc1ccc(Cl)c(Cl)c1`, for which the relative growth was inactive: 1.03. To `CCC(=O)OC1(C(=O)CCl)C(C)CC2C3CCC4=CC(=O)C=CC4(C)C3(F)C(O)CC21C` (stereo not drawn) belongs inactive: 1.02; to `CC(C)NC(=O)N(C)C[C@@H]1Oc2ncc(-c3ccc(C(=O)N(C)C)cc3)cc2C(=O)N([C@@H](C)CO)C[C@@H]1C`, inactive: 0.995; to `C[C@@H]1CCCCO[C@@H](CN(C)CC2CCCCC2)[C@@H](C)CN([C@@H](C)CO)C(=O)c2cc(NS(=O)(=O)c3cccs3)ccc2O1`, inactive: 0.911. To `Cc1ccc(-c2ccc3c(c2)O[C@H](CN(C)C(=O)NC(C)C)[C@@H](C)CN([C@@H](C)CO)S3(=O)=O)cc1` belongs inactive: 1; to `O=C(NO)c1cccc(C(=O)N/N=C/[C@@H](O)[C@H](O)[C@H](O)CO)c1`, inactive: 1.04.

As to `CNC[C@@H](O)c1ccc(O)c(O)c1`, the relative growth was inactive: 1. Take `C[C@@H]1CCCCO[C@@H](CN(C)C(=O)Nc2ccccc2)[C@H](C)CN([C@H](C)CO)C(=O)c2cc(NS(=O)(=O)c3ccc(Cl)cc3)ccc2O1`: the relative growth was inactive: 1.01. To `CC(C)(C)NC(=O)C[n+]1cccc(/C=N/O)c1` belongs inactive: 1.03; to `C[C@H](CO)N1C[C@H](C)[C@H](CN(C)CC2CC2)OCCCC[C@H](C)Oc2ccc(NC(=O)Nc3ccccc3)cc2C1=O`, inactive: 0.993; to `COc1ccc(S(=O)(=O)N(C)C[C@H]2Oc3ccc(NS(=O)(=O)c4cn(C)cn4)cc3CC(=O)N([C@H](C)CO)C[C@H]2C)cc1`, inactive: 0.998. In the case of `C[C@@H]1CN([C@H](C)CO)C(=O)c2cccc(NS(=O)(=O)c3ccc(Cl)cc3)c2O[C@H]1CN(C)Cc1ccc(C(=O)Nc2ccccc2N)cc1` it was inactive: 1.05. For the molecule `Cc1noc(C)c1S(=O)(=O)N(C)C[C@H]1OCCCC[C@@H](C)Oc2ccc(NC(=O)Nc3cccc4ccccc34)cc2C(=O)N([C@@H](C)CO)C[C@@H]1C`, the relative growth was inactive: 0.95. To `C[C@H]1CCCCO[C@H](CN(C)C(=O)Nc2ccc(C(F)(F)F)cc2)[C@@H](C)CN([C@@H](C)CO)C(=O)c2cc(NS(=O)(=O)c3ccccc3)ccc2O1` belongs inactive: 1.02; to `C[C@@H]1CN([C@@H](C)CO)C(=O)c2cc(N(C)C)ccc2O[C@H]1CN(C)S(=O)(=O)c1ccc(Cl)cc1`, inactive: 0.994.

For the molecule `CC=Cc1ccc2n(c1=O)C[C@H]1[C@H](CO)[C@@H](C(=O)NCCc3cn(C)cn3)[C@@H]2N1C(=O)CC`, the relative growth was inactive: 1.05. In the case of `C[C@H](CO)N1C[C@H](C)[C@H](CN(C)C(=O)Nc2ccc(F)cc2)OCCCC[C@H](C)Oc2ccc(NC(=O)CCC(F)(F)F)cc2C1=O` it was inactive: 0.989.

For `Cc1noc(C)c1NC(=O)Nc1ccc2c(c1)CC(=O)N([C@@H](C)CO)C[C@@H](C)[C@H](CN(C)C(=O)NC(C)C)O2`, the relative growth was inactive: 1.04. In the case of `NCC[C@@H](O)c1ccc(Br)cc1` it was inactive: 0.983. To `C[C@H]1CN([C@@H](C)CO)C(=O)c2cc(NC(=O)Nc3ccc(F)cc3)ccc2O[C@H]1CN(C)Cc1ccc(-c2ccccc2)cc1` belongs inactive: 0.994; to `O=c1[nH]c(=S)nc2[nH][nH]cc1-2`, inactive: 0.997; to `Cc1noc(C)c1NC(=O)Nc1ccc2c(c1)C(=O)N([C@@H](C)CO)C[C@H](C)[C@H](CN(C)S(=O)(=O)c1ccccc1)OCCCC[C@@H](C)O2`, inactive: 1.01.

Take `Cc1noc(C)c1S(=O)(=O)Nc1ccc2c(c1)CC(=O)N([C@H](C)CO)C[C@H](C)[C@H](CN(C)C(=O)NC(C)C)O2`: the relative growth was inactive: 0.967.

`C[C@@H]1CCCCO[C@H](CN(C)Cc2ccc(C(F)(F)F)cc2)[C@H](C)CN([C@H](C)CO)C(=O)c2cc(NC(=O)Nc3ccc(C(F)(F)F)cc3)ccc2O1`: the relative growth is inactive: 1.07. To `Oc1ccc(Cl)c2cccnc12` belongs active: 0.0534; to `COc1ccc2c3c([nH]c2c1)[C@H](CO)N(C[C@]13CN(C1)S(=O)(=O)c1cn(cn1)C)C(=O)Nc1ccc(cc1)F`, inactive: 0.981; to `CC(=O)N(O)CCCCCNC(=O)CCC(=O)N(O)CCCCCNC(=O)CCC(=O)N(O)CCCCCN.CS(=O)(=O)O`, inactive: 0.948. To `Cc1ccc(S(=O)(=O)N(C)C[C@@H]2Oc3ccc(NS(=O)(=O)c4ccccc4)cc3CC(=O)N([C@@H](C)CO)C[C@@H]2C)cc1` belongs inactive: 0.992. In the case of `C[C@@H]1CCCCO[C@@H](CN(C)Cc2ccc(C(F)(F)F)cc2)[C@@H](C)CN([C@H](C)CO)C(=O)c2cc(NC(=O)Nc3ccccc3)ccc2O1`, the relative growth is inactive: 1.04.
